{"source": "paper PMC6919601", "about": "“Identification of Plasmodium dipeptidyl aminopeptidase allosteric inhibitors by high throughput screening” (PLoS ONE, 2019)", "note": "Out of some 110,000 compounds screened, about 230 (0.21%) showed an effect of 50% or more. The list shows a part of the results.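 Also: 30 min substrate incubation versus DMSO and 10 µM JCP410 controls.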", "data": [{"biological_target": "DPAP1 (Plasmodium falciparum, UniProt Q8IIJ9)", "sequence (Q8IIJ9 whole entry, looked up)": "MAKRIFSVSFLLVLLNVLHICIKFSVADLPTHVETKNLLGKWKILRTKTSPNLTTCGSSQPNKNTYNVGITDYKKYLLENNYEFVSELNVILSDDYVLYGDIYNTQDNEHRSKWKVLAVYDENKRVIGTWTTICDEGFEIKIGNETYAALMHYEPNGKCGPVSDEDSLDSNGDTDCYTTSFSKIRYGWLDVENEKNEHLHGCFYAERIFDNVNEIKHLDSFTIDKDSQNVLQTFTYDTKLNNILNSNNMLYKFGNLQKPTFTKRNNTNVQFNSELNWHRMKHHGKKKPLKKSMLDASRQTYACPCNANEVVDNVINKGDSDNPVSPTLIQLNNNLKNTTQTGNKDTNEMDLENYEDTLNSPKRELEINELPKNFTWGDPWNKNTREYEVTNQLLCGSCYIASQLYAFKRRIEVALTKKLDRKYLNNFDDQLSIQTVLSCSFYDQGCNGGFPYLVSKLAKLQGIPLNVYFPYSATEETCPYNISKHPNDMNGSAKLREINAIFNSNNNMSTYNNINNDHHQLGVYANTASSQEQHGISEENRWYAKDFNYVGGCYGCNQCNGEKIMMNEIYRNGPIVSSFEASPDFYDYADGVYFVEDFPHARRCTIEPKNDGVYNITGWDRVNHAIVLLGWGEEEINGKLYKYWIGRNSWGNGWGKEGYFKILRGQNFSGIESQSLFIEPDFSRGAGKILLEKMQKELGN", "assay": "primary screen, percent inhibition; read by cleavage of a fluorogenic dipeptide substrate; higher = more effect of the substance", "design": "species or system P. falciparum D10 trophozoite lysates; single well", "units": {"% Inhibition @ 10 uM": "%"}, "values": [{"compound": "Cn1c2ccccc2c2c(C(=O)NCCCN3CCCC3=O)cn(C3CCCCC3)c(=O)c21", "% Inhibition @ 10 uM": -1.58}, {"compound": "CSc1nc(-c2ccccc2)nc2nc(-c3ccccc3)cc(O)c12", "% Inhibition @ 10 uM": 2.36}, {"compound": "CCc1ccc(CNCc2c(C(=O)O)n(Cc3ccccc3F)c3cc(OC)ccc23)cc1", "% Inhibition @ 10 uM": 4.66}, {"compound": "CCc1ccc(C2N(c3cc(C)on3)C(=O)C3CCCN32)cc1", "note": "(centres unmarked)", "% Inhibition @ 10 uM": -0.499}, {"compound": "CCc1ccc(N2CC(C(=O)Nc3ccccc3C(=O)NC3CCCCC3)CC2=O)cc1", "note": "(centres unmarked)", "% Inhibition @ 10 uM": -4.38}, {"compound": "COc1ccc(CN2C(=O)c3cccnc3C2=O)cc1S(=O)(=O)NCC(C)c1ccccc1", "note": "(centres unmarked)", "% Inhibition @ 10 uM": -9.16}, {"compound": "N#Cc1c(NC(=O)c2cc3nc(-c4ccccc4)cc(C(F)(F)F)n3n2)sc2c1CCCC2", "% Inhibition @ 10 uM": -3.27}, {"compound": "Cc1oc2c(c1C(=O)N1CCCC1)C(=O)c1ccccc1C2=O", "% Inhibition @ 10 uM": 1.72}, {"compound": "c1ccc(-c2nc3c(c(N4CCCCC4)n2)C2(CCCCC2)Cc2ccccc2-3)cc1", "% Inhibition @ 10 uM": 3.01}, {"compound": "C/C(=N\\Cc1ccccc1)c1sc2ccccc2c1O", "% Inhibition @ 10 uM": 21.8}, {"compound": "CCSc1sc(CCN(CC)CC)cc1/C=N/O", "% Inhibition @ 10 uM": 1.29}, {"compound": "COc1cc(CN(C(=S)NCC(=O)N2CCCC2)C2CCCC2)cc(OC)c1OC", "% Inhibition @ 10 uM": 2.9}, {"compound": "Oc1ccc(-c2ccccc2)nn1", "% Inhibition @ 10 uM": 3.04}, {"compound": "COc1ccc(CCCC(=O)Nc2ccccc2Cl)cc1", "% Inhibition @ 10 uM": -3.28}, {"compound": "COC(=O)c1ccc(C2NC(C(=O)O)CS2)cc1", "note": "(centres unmarked)", "% Inhibition @ 10 uM": -5.15}, {"compound": "CCSc1nc2c(cc1C#N)CCCC2", "% Inhibition @ 10 uM": 9.41}, {"compound": "CN1CCN(C(=O)c2ccccc2Sc2ccccc2)CC1", "% Inhibition @ 10 uM": -2.98}, {"compound": "O=C(C1=NOC2C3CCC(C3)C12)c1ccccc1", "note": "(centres unmarked)", "% Inhibition @ 10 uM": -1.78}, {"compound": "CC(=O)C1=C(C)NC(SCC(=O)c2cc(Cl)ccc2Cl)=C(C#N)C1c1cccs1", "note": "(centres unmarked)", "% Inhibition @ 10 uM": 10.9}, {"compound": "COc1ccc(CN2CCN(c3cccc(Cl)c3)CC2)cc1C", "% Inhibition @ 10 uM": 1.4}, {"compound": "COc1ccc(-c2nn(C)c3sc(C(=O)N4CCC(C#N)CC4)cc23)cc1OC", "% Inhibition @ 10 uM": 1.91}, {"compound": "Cc1ccccc1C(=O)OCCN1CCCCC1", "% Inhibition @ 10 uM": -5.51}, {"compound": "O=C(c1ccco1)c1cn(CCOc2ccccc2)c2ccccc12", "% Inhibition @ 10 uM": 2.1}, {"compound": "CCOC(=O)c1cc(-c2ccc(/C=C3/C(=O)ON=C3C)o2)ccc1Cl", "% Inhibition @ 10 uM": -2.87}, {"compound": "COc1cc2c(cc1OC)C(C(=O)N(C)Cc1ccccc1)C(c1ccc(SC)cc1)N(C)C2=O", "note": "(centres unmarked)", "% Inhibition @ 10 uM": 2.17}, {"compound": "Cc1ccc(-c2c(C#N)c(N)nc3c2CCCCCC3)o1", "% Inhibition @ 10 uM": 2}, {"compound": "O=C(NCCc1cccs1)C(c1ccccc1)c1ccccc1", "% Inhibition @ 10 uM": -4.42}, {"compound": "CC(CCc1ccccc1)NC(=O)C(=O)N1CCOCC1", "note": "(centres unmarked)", "% Inhibition @ 10 uM": 3.79}, {"compound": "Cc1oc(-c2ccc(Cl)cc2)nc1CN1CCC(C(=O)NCCN2CCCCC2C)CC1", "note": "(centres unmarked)", "% Inhibition @ 10 uM": 2.37}, {"compound": "Cc1ccc(-c2cc(C(=O)NCC3CCCO3)[nH]n2)cc1C", "note": "(centres unmarked)", "% Inhibition @ 10 uM": -0.537}, {"compound": "Cc1ccc(S(=O)(=O)N(CC(=O)N2CCCCCC2)Cc2ccc(Cl)cc2)cc1", "% Inhibition @ 10 uM": -4.71}, {"compound": "Cc1ccc(CN(C(=O)c2ccc(OC(C)C)cc2)C2CCS(=O)(=O)C2)o1", "note": "(centres unmarked)", "% Inhibition @ 10 uM": -1.11}, {"compound": "Cc1nc2ccn(Cc3cccnc3)c(=O)c2cc1C(=O)NCc1ccc2c(c1)OCO2", "% Inhibition @ 10 uM": -5.72}, {"compound": "CCOC(=O)N1CCN(C(=O)c2cc3c(s2)-c2ccc(Cl)cc2SC3)CC1", "% Inhibition @ 10 uM": 7.12}, {"compound": "CC(CCc1ccc(O)cc1)NC1CCCC(C)C1C", "note": "(centres unmarked)", "% Inhibition @ 10 uM": -0.233}, {"compound": "O=C(O)Cc1sc(Nc2nc3ccccc3s2)nc1-c1ccccc1", "% Inhibition @ 10 uM": 3.93}, {"compound": "CC(NCC(O)Cn1c2ccccc2c2ccccc21)C(=O)O", "note": "(centres unmarked)", "% Inhibition @ 10 uM": 0.0289}, {"compound": "CSc1ccc(C2C3=C(CCCC3=O)OC3=C2C(=O)CCC3)cc1", "% Inhibition @ 10 uM": 2.38}, {"compound": "CN(CC(CC(=O)Nc1nnc(-c2ccccc2)s1)c1ccccc1)S(=O)(=O)c1ccccc1", "note": "(centres unmarked)", "% Inhibition @ 10 uM": -0.834}, {"compound": "CC1=N/C(=C/c2cc3cccc(C)c3nc2Sc2ccccc2)C(=O)O1", "% Inhibition @ 10 uM": 0.275}, {"compound": "COc1cccc(CCNC2C3CC4CC(C3)CC2C4)c1", "note": "(centres unmarked)", "% Inhibition @ 10 uM": -0.0494}, {"compound": "CC1=C(C(=O)OCc2ccccc2)C(c2ccc(OCc3ccccc3)cc2)NC(=O)N1", "note": "(centres unmarked)", "% Inhibition @ 10 uM": 5.44}, {"compound": "O=C(Nc1nc2c(s1)C(=O)CCC2)c1ccccc1Cl", "% Inhibition @ 10 uM": -6.04}, {"compound": "Cc1nn(Cc2noc(C(=O)NCCc3c[nH]c4ccccc34)n2)c(C)c1Br", "% Inhibition @ 10 uM": -3.07}, {"compound": "CCC(CC)C(=O)Nc1nnc(S(=O)(=O)N2CCCC2)s1", "% Inhibition @ 10 uM": 1.68}, {"compound": "O=C(Nc1cccc(Cl)c1)N(CCCN1CCOCC1)Cc1ccccc1F", "% Inhibition @ 10 uM": -2.29}, {"compound": "Cc1nn(C(C)C(=O)NCCCN(C)C2CCCCC2)c(=O)c2nn(-c3ccccc3)c(C)c12", "note": "(centres unmarked)", "% Inhibition @ 10 uM": 4.81}, {"compound": "CCOc1ccccc1N(CC(=O)NCc1ccc(Cl)cc1)S(C)(=O)=O", "% Inhibition @ 10 uM": -3.5}, {"compound": "O=C1NC(=S)SC1=C1CCCCC1", "% Inhibition @ 10 uM": -0.0494}, {"compound": "COCc1cc(C)nc(SCC(=O)Nc2ccc(Br)c(C)c2C)c1C#N", "% Inhibition @ 10 uM": -5.63}, {"compound": "CC(C)CSC1=NSC2=NC(=O)/C(=C\\c3ccc(C(=O)O)cc3)C(=N)N12", "% Inhibition @ 10 uM": 0.968}, {"compound": "Cc1nn(CC(=O)N2CCC(Cc3ccccc3)CC2)c(=O)c2ccccc12", "% Inhibition @ 10 uM": 0.565}, {"compound": "Cc1ccc(NC(=O)C2CC=CCC2C(=O)O)c(C)c1", "note": "(centres unmarked)", "% Inhibition @ 10 uM": -12}, {"compound": "Cc1ccc(CNc2ncnc3c2nc2n3CCCCC2)cc1", "% Inhibition @ 10 uM": -4.33}, {"compound": "COc1ccc(C2N(C(=O)C(F)(F)F)CCN2S(=O)(=O)c2ccccc2)cc1", "note": "(centres unmarked)", "% Inhibition @ 10 uM": 1.91}, {"compound": "CC1=C(C(=O)Nc2ccc(Cl)cc2)C(c2ccc(F)cc2)NC(=O)N1", "note": "(centres unmarked)", "% Inhibition @ 10 uM": -1.2}, {"compound": "COC(=O)C(Cc1ccccc1)NC(=O)C1CC1c1ccccc1", "note": "(centres unmarked)", "% Inhibition @ 10 uM": -2.77}, {"compound": "COc1ccc(C2Nc3ccccc3C(=O)N2C2CCCCC2)cc1", "note": "(centres unmarked)", "% Inhibition @ 10 uM": -7.02}, {"compound": "COc1cccc(Cn2c(=O)n(CCc3ccccc3)c(=O)c3cccnc32)c1", "% Inhibition @ 10 uM": 3.32}, {"compound": "CC1CCCCN1Cc1ccc(-c2nn[nH]n2)cc1", "note": "(centres unmarked)", "% Inhibition @ 10 uM": 1.12}, {"compound": "CCOC(=O)c1cnc(-c2ccccc2)nc1NCc1ccccc1", "% Inhibition @ 10 uM": 1.91}, {"compound": "COc1ccc(OC)c(NC(=O)c2ccc(CSc3ncccn3)cc2)c1", "% Inhibition @ 10 uM": -2.98}, {"compound": "Cc1ccc(-n2ncc3c(N4CCOCC4)ncnc32)cc1C", "% Inhibition @ 10 uM": 3.36}, {"compound": "O=C1CC(Sc2ccc(F)cc2)C(=O)N1c1ccccc1", "note": "(centres unmarked)", "% Inhibition @ 10 uM": 0.528}, {"compound": "CCc1ccc(S(=O)(=O)/N=C2\\C=CC(=O)c3ccccc32)cc1", "% Inhibition @ 10 uM": -1.52}]}]}
